# Data from the supplement of paper PMC8728848.
# This is one part of the list.
# B1: Cohesin-mDCIR (Macaca mulatta) (protein)
# chain: GLDDLDAVRIKVDTVNAKPGDTVRIPVRFSGIPSKGIANCDFVYSYDPNVLEIIEIEPGDIIVDPNPDKSFDTAVYPDRKIIVFLFAEDSGTGAYAITKDGVFATIVAKVKEGAPNGLSVIKFVEVGGFANNDLVEQKTQFFDGGVNVGDTTEPATPTTPVTTPTTTDDLDAASFQKYSQLLEKMTTKDLVHTTLECVKKNMTTEETAWSCCPKNWKPFSSNCYFISTESASWQKSEKDCARMEAHLLVINTREEQDFIFQNLQEESAYFVGLSDPEGQRHWQWVDRTPYNESSTFWHPHEPSDPDERCVVLNFRKTPKRWGWNDVHCIVHQRSVCEMMKIHLHHHHHH
# How the values were obtained:
# Assay in all cases: glycan array binding signal (z-score within array); higher = stronger binding
# Conditions in all cases: glycan notation: IUPAC condensed, linker removed
# [1] = molecular target: Neu5Ac(a2-3)Gal(b1-3)[Fuc(a1-4)]GlcNAc
# Summary of the method: (§1)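 Negative Z-scores can be read as non-binding. The Z-score is calculated within each array and then averaged across arrays of one protein sequence at different concentrations or buffers and across linkers. Arrays, 3228 in all, were curated from the Consortium for Functional Glycomics database and kept only where the protein sequence was available.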
# [2] = molecular target: Neu5Ac(a2-3)Gal(b1-3)[Fuc(a1-4)]GlcNAc(b1-3)Gal(b1-3)[Fuc(a1-4)]GlcNAc
# Summary of the method: as §1
# [3] = molecular target: Neu5Ac(a2-3)Gal(b1-3)[Fuc(a1-4)]GlcNAc(b1-3)Gal(b1-4)[Fuc(a1-3)]GlcNAc
# Summary of the method: as §1
# [4] = molecular target: Neu5Ac(a2-3)Gal(b1-3)[GlcNAc(b1-6)]GalNAc
# Summary of the method: as §1
# [5] = molecular target: Neu5Ac(a2-3)Gal(b1-3)[Neu5Ac(a2-6)]GalNAc
# Summary of the method: as §1
# [6] = molecular target: Neu5Ac(a2-3)Gal(b1-3)[Neu5Ac(a2-6)]GlcNAc(b1-3)[Fuc(a1-3)[Gal(b1-4)]GlcNAc(b1-6)]Gal(b1-4)Glc
# Summary of the method: as §1
# [7] = molecular target: Neu5Ac(a2-3)Gal(b1-3)]Neu5Ac(a2-3)Gal(b1-4)]GlcNAc
# Summary of the method: as §1
# [8] = molecular target: Neu5Ac(a2-3)Gal(b1-4)Glc
# Summary of the method: as §1
# [9] = molecular target: Neu5Ac(a2-3)Gal(b1-4)GlcNAc
# Summary of the method: as §1
# [10] = molecular target: Neu5Ac(a2-3)Gal(b1-4)GlcNAc(b1-2)Man
# Summary of the method: as §1
# [11] = molecular target: Neu5Ac(a2-3)Gal(b1-4)GlcNAc(b1-2)Man(a1-3)[GlcNAc(b1-4)][Neu5Ac(a2-3)Gal(b1-4)GlcNAc(b1-2)Man(a1-6)]Man(b1-4)GlcNAc(b1-4)GlcNAc
# Summary of the method: as §1
# [12] = molecular target: Neu5Ac(a2-3)Gal(b1-4)GlcNAc(b1-2)Man(a1-3)[Neu5Ac(a2-3)Gal(b1-4)GlcNAc(b1-2)Man(a1-6)]Man(b1-4)GlcNAc(b1-4)GlcNAc
# Summary of the method: as §1
# [13] = molecular target: Neu5Ac(a2-3)Gal(b1-4)GlcNAc(b1-2)Man(a1-3)[Neu5Ac(a2-3)Gal(b1-4)GlcNAc(b1-2)Man(a1-6)]Man(b1-4)GlcNAc(b1-4)[Fuc(a1-6)]GlcNAc
# Summary of the method: as §1
# [14] = molecular target: Neu5Ac(a2-3)Gal(b1-4)GlcNAc(b1-2)Man(a1-3)[Neu5Ac(a2-6)Gal(b1-4)GlcNAc(b1-2)Man(a1-6)]Man(b1-4)GlcNAc(b1-4)GlcNAc
# Summary of the method: as §1
# [15] = molecular target: Neu5Ac(a2-3)Gal(b1-4)GlcNAc(b1-2)[Neu5Ac(a2-3)Gal(b1-4)GlcNAc(b1-4)]Man(a1-3)[GlcNAc(b1-4)][Neu5Ac(a2-3)Gal(b1-4)GlcNAc(b1-2)[Neu5Ac(a2-3)Gal(b1-4)GlcNAc(b1-6)]Man(a1-6)]Man(b1-4)GlcNAc(b1-4)GlcNAc
# Summary of the method: as §1
# [16] = molecular target: Neu5Ac(a2-3)Gal(b1-4)GlcNAc(b1-2)[Neu5Ac(a2-3)Gal(b1-4)GlcNAc(b1-4)]Man(a1-3)[GlcNAc(b1-4)][Neu5Ac(a2-3)Gal(b1-4)GlcNAc(b1-4)Man(a1-6)]Man(b1-4)GlcNAc(b1-4)GlcNAc
# Summary of the method: as §1
# [17] = molecular target: Neu5Ac(a2-3)Gal(b1-4)GlcNAc(b1-2)[Neu5Ac(a2-3)Gal(b1-4)GlcNAc(b1-6)]Man(a1-6)[Neu5Ac(a2-3)Gal(b1-4)GlcNAc(b1-2)Man(a1-3)]Man(b1-4)GlcNAc(b1-4)GlcNAc
# Summary of the method: as §1
# [18] = molecular target: Neu5Ac(a2-3)Gal(b1-4)GlcNAc(b1-2)[Neu5Ac(a2-3)Gal(b1-4)GlcNAc(b1-6)]Man(a1-6)[Neu5Ac(a2-3)Gal(b1-4)GlcNAc(b1-2)Man(a1-3)][GlcNAc(b1-4)]Man(b1-4)GlcNAc(b1-4)GlcNAc
# Summary of the method: as §1
# [19] = molecular target: Neu5Ac(a2-3)Gal(b1-4)GlcNAc(b1-3)Gal
# Summary of the method: as §1
# [20] = molecular target: Neu5Ac(a2-3)Gal(b1-4)GlcNAc(b1-3)Gal(b1-3)GlcNAc
# Summary of the method: as §1
# [21] = molecular target: Neu5Ac(a2-3)Gal(b1-4)GlcNAc(b1-3)Gal(b1-4)GlcNAc
# Summary of the method: as §1
# [22] = molecular target: Neu5Ac(a2-3)Gal(b1-4)GlcNAc(b1-3)Gal(b1-4)GlcNAc(b1-2)Man(a1-3)[Neu5Ac(a2-3)Gal(b1-4)GlcNAc(b1-3)Gal(b1-4)GlcNAc(b1-2)Man(a1-6)]Man(b1-4)GlcNAc(b1-4)GlcNAc
# Summary of the method: as §1
# [23] = molecular target: Neu5Ac(a2-3)Gal(b1-4)GlcNAc(b1-3)Gal(b1-4)GlcNAc(b1-3)Gal(b1-4)GlcNAc
# Summary of the method: as §1
# [24] = molecular target: Neu5Ac(a2-3)Gal(b1-4)GlcNAc(b1-3)Gal(b1-4)GlcNAc(b1-3)Gal(b1-4)GlcNAc(b1-2)Man(a1-3)[Neu5Ac(a2-3)Gal(b1-4)GlcNAc(b1-3)Gal(b1-4)GlcNAc(b1-3)Gal(b1-4)GlcNAc(b1-2)Man(a1-6)]GalNAc
# Summary of the method: as §1
# [25] = molecular target: Neu5Ac(a2-3)Gal(b1-4)GlcNAc(b1-3)Gal(b1-4)GlcNAc(b1-3)GalNAc
# Summary of the method: as §1
# [26] = molecular target: Neu5Ac(a2-3)Gal(b1-4)GlcNAc(b1-3)Gal(b1-4)GlcNAc(b1-3)[Neu5Ac(a2-3)Gal(b1-4)GlcNAc(b1-3)Gal(b1-4)GlcNAc(b1-6)]GalNAc
# Summary of the method: as §1
# [27] = molecular target: Neu5Ac(a2-3)Gal(b1-4)GlcNAc(b1-3)Gal(b1-4)GlcNAc(b1-6)[Gal(b1-3)]GalNAc
# Summary of the method: as §1
# [28] = molecular target: Neu5Ac(a2-3)Gal(b1-4)GlcNAc(b1-3)Gal(b1-4)[Fuc(a1-3)]GlcNAc
# Summary of the method: as §1
# [29] = molecular target: Neu5Ac(a2-3)Gal(b1-4)GlcNAc(b1-3)GalNAc
# Summary of the method: as §1
# [30] = molecular target: Neu5Ac(a2-3)Gal(b1-4)GlcNAc(b1-3)[Neu5Ac(a2-3)Gal(b1-4)GlcNAc(b1-6)]GalNAc
# Summary of the method: as §1
binder,measurement,setting,value
B1,glycan array binding signal (z-score),[1],0.069
same,glycan array binding signal (z-score),[2],-0.418
same,glycan array binding signal (z-score),[3],-0.421
same,glycan array binding signal (z-score),[4],-0.358
same,glycan array binding signal (z-score),[5],-0.023
same,glycan array binding signal (z-score),[6],-0.45
same,glycan array binding signal (z-score),[7],0.025
same,glycan array binding signal (z-score),[8],-0.444
same,glycan array binding signal (z-score),[9],-0.267
same,glycan array binding signal (z-score),[10],0.033
same,glycan array binding signal (z-score),[11],-0.429
same,glycan array binding signal (z-score),[12],-0.286
same,glycan array binding signal (z-score),[13],-0.364
same,glycan array binding signal (z-score),[14],-0.238
same,glycan array binding signal (z-score),[15],-0.171
same,glycan array binding signal (z-score),[16],-0.234
same,glycan array binding signal (z-score),[17],-0.05
same,glycan array binding signal (z-score),[18],-0.45
same,glycan array binding signal (z-score),[19],-0.377
same,glycan array binding signal (z-score),[20],-0.424
same,glycan array binding signal (z-score),[21],-0.175
same,glycan array binding signal (z-score),[22],-0.33
same,glycan array binding signal (z-score),[23],-0.241
same,glycan array binding signal (z-score),[24],-0.191
same,glycan array binding signal (z-score),[25],0.175
same,glycan array binding signal (z-score),[26],-0.333
same,glycan array binding signal (z-score),[27],-0.416
same,glycan array binding signal (z-score),[28],-0.47
same,glycan array binding signal (z-score),[29],-0.264
same,glycan array binding signal (z-score),[30],-0.458
